The full ranking holds about 33,000 sequences; the median of “E-score (-0.5 to 0.5)” is about -0.041, and the highest 2% start at about 0.37. The list shows a part of the results.
Target: T1, Ecm22 (UniProt Q05958)
T1 sequence: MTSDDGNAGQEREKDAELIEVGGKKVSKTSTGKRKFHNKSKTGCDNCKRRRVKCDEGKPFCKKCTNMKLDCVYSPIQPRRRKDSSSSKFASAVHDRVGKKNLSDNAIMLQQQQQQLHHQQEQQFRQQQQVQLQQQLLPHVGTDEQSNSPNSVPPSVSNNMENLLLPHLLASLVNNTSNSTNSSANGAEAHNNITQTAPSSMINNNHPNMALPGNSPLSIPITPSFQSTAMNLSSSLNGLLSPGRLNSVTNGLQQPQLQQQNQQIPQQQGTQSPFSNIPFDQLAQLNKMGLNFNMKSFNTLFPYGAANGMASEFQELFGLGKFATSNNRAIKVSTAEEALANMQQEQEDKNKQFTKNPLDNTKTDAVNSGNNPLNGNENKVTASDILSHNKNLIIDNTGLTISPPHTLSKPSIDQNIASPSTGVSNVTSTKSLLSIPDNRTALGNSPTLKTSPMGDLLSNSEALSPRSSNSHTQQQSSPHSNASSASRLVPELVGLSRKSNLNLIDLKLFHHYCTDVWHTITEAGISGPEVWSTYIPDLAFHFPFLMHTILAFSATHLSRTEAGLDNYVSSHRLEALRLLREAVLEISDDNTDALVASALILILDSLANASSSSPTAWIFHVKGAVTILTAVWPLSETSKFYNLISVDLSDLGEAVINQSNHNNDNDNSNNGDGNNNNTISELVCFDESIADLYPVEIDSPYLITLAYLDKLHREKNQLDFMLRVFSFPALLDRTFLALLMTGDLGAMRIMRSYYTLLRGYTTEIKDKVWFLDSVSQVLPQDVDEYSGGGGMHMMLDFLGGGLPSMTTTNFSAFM
Assay: PBM E-score (8-mer binding enrichment) (E-score (-0.5 to 0.5)); higher = stronger / more preferred TF binding; most listed sequences are background and not binding sites
Conditions: protein concentration: 200 nM; construct: GST-full length
How it was run: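 Full-length yeast transcription factors or their DNA-binding domains, GST-tagged and expressed with PURExpress, were applied at about 100-200 nM to universal all-10-mer Agilent arrays. These arrays had been made double-stranded by primer extension on fresh or once-stripped slides. Detection used fluorescent anti-GST, normalisation used masliner, and E-scores for ungapped eight-base words pooled with reverse complements came from the Universal PBM Analysis Suite.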

Sequence	PBM E-score
CCAGTCCC	-0.245
ATTTTCAC	0.0511
TGCCTCCA	-0.256
CAGCGTGC	-0.173
AAGTGGAG	-0.103
CACGACGA	0.108
AACGGTGA	0.195
AATACAAT	0.095
ATCCGTTC	0.325
CAAAACGA	0.278
CAAATTAA	-0.115
ATGAGATC	0.0336
GAGGATCC	0.0563
GTCTCGTA	0.461
ACACATGC	-0.0525
TAAACAGA	-0.218
ATCACCTA	-0.0876
AATCATGC	-0.25
CTCAAGCA	-0.289
CATTCTGC	-0.121
CCTCCAAG	-0.321
AATCGATA	0.161
AGGCACCA	-0.0947
ACCGTTAT	-0.074
ACTCATCA	-0.13

Sequence	PBM E-score
AGAGCCCG	0.0255
ATTAACAA	0.179
GAACACCA	-0.183
GAATGACC	-0.0703
AATAGTTA	0.0022
ACGCCTAC	-0.172
CCTTCCGC	-0.184
ACCCATCC	-0.125
CATTAGTA	-0.0217
AAGTGGGG	-0.157
GAGCAATA	-0.0848
AGCACTTC	-0.0507
TCGATAGA	0.042
TCGTTAAA	0.44
CACATCTC	-0.203
TCATCAAA	-0.111
GCGTCCTA	-0.07
CCCGGCCG	-0.15
CATACATC	-0.035
CAAAGCCA	-0.0435
GGGTACCC	-0.196
CCCAGCAC	-0.127
AATACTGG	-0.0619
GATTGCGA	0.178
CATATCAG	-0.174

Sequence	PBM E-score
AGATTCTG	-0.133
CGGTTGAC	0.0991
CGTAAAGA	0.389
CAGACCCA	-0.131
CTGCTAGA	-0.155
ATACGGGA	0.389
CGATTGAC	0.109
CCTATATA	0.109
ACCCGACA	0.132
ACGCCAGA	0.0314
CAAGCTAA	0.00292
AGACTCCG	-0.193
CGCGGTGC	-0.0645
AAACAGTG	-0.0311
ATCCACAT	0.00148
AGGGGAGG	-0.127
CAACTTCG	0.0697
CTTCCTGA	-0.112
AATATTTG	0.127
AGCGTCCA	-0.201
CGTGACAG	0.0941
CACCACAC	-0.135
ATCCGACA	0.127
AGCGCGGG	0.033
CAACATTG	0.0128

Sequence	PBM E-score
CCGAAGCA	0.0708
ATCTGCAC	-0.117
GCTGGATA	0.00029
CATGTAGA	-0.0172
GACTTTCC	-0.201
AGACGATG	0.00668
GATGCCAC	-0.148
GGTGTATA	-0.0731
ACCTTAAC	0.0365
AGTTTCGC	0.128
AACCGTCC	-0.274
ATTAAGAG	-0.0551
ACCAGCCC	-0.231
CACTAGTA	0.0245
GACTTACA	0.13
GATGCCTA	-0.185
GCGGTGCC	-0.173
TAAATCGA	-0.0312
ACCAGGCC	0.0165
CAGTGGGG	-0.207
GAGGAAAC	0.0137
CCCGCTAA	-0.0739
ACCTATAA	0.0606
AACAGATA	-0.0219
CTGCTGTC	-0.0117

Sequence	PBM E-score
ATCGAGTC	0.0487
GGCAAGCC	-0.285
AAACTTCT	0.0903
AATTTGTG	0.153
AAGGACAA	-0.0711
CCGGCTAA	-0.164
AACGCACT	0.0967
CTGGGACA	-0.103
TAGCGCAA	-0.00736
GTAGCGCA	0.0592
GCGTATTA	0.031
ACGGTCTC	0.184
AGTACGCC	-0.0213
ATTAGTCG	0.251
GGGTAGTA	-0.0752
CACATCAG	-0.139
CGGCTTAG	-0.17
ACTCCCTA	-0.0743
CCTAACAC	0.0728
AGCGCCGC	-0.188
GTCGTCGA	-0.00575
CACCCGAA	0.156
AATGCCGA	-0.0319
ACGAAATG	0.282
AGCAGAGA	-0.245

Sequence	PBM E-score
GGCGAAAA	0.0595
CCATCGCG	0.0954
GCATTTAA	0.111
GAAGTCCA	-0.251
AGAAGGCA	-0.166
CCGAGCAC	0.208
GCCCAGGA	-0.293
TAACTATA	-0.0127
GCGGCAGC	-0.236
GACTAGCA	-0.182
AATCGAAT	0.0012
ACGCTGTA	0.13
ACGTAGGA	0.0588
CTTTAGAA	-0.0855
CTGCCGCA	-0.178
CTATAATC	0.111
ACAATCTA	0.0797
GGGATGCA	-0.0848
CATCTGGG	-0.134
GCTTAGCC	-0.0171
ACGGCTTA	0.0496
CGCACACC	0.0889
AGACACGA	0.218
AACTAGAG	-0.182
TGACTGAA	-0.196

Sequence	PBM E-score
ATCTACCG	0.0613
ACTAGAGG	-0.227
GATCTAAA	0.11
GGGAGCGA	0.332
ATCACTCA	0.0232
CCGAGTGA	0.196
GACTCGCC	-0.046
GATACTCA	-0.072
ACAACACG	0.131
TTAGGCAA	-0.305
CCATACGG	0.345
AATTACAA	-0.213
AGATTTAT	0.0306
GGGGACGA	-0.125
AACATAAA	-0.034
CATCCAGA	-0.106
ACTAGCAA	-0.0444
CGTGGTGA	-0.196
CCACACAA	-0.189
CGGCGCGA	0.133
ACCCGATA	0.259
AGCCCACT	-0.118
ACGCGGAC	-0.0224
CTTGTAGC	-0.0823
CCACGCCA	-0.204

Sequence	PBM E-score
GCTGGTAC	-0.00169
AGCCCCCT	-0.207
GTCGTAGA	0.4
CCGGGTCG	0.163
ACGGTGCT	0.109
CGGCAAGA	-0.118
GGCACTAA	-0.143
AGGATGAT	0.0289
ACCGGATG	0.0481
GGCATCCC	-0.315
GGCTCAGA	-0.051
CGACGCGA	0.221
GAGTGTTA	-0.126
ACTTTGAT	-0.154
AAAGTACA	0.154
ACATCCAC	-0.0236
AGCCGTCC	-0.181
AATGGTAC	0.167
AAAAATAG	-0.197
GGTGCTGA	-0.13
AGCTCCTA	-0.316
CTATGCGC	0.00705
GCTTTTCC	0.0155
CAACCTTC	-0.186
AGTAAGCA	-0.0538

Sequence	PBM E-score
TCTGATCA	-0.194
GAGGGCTA	-0.271
GAGCATCA	-0.0867
TCTCGCAA	0.227
ACTGTAAG	0.133
ACTTAAAT	-0.142
TATAGTGA	-0.115
CGCCCACC	-0.18
TCGTAGCA	0.419
GTGTTAAC	-0.094
GGAGAGAC	-0.154
AGCTTGTA	0.0441
ATAAAGAT	0.0382
ACTTAGAC	0.0216
GCCCTACA	-0.133
ATTCCGAA	0.022
CCCTATCG	-0.138
ATGGGAAC	0.0419
ACTTAGTC	-0.115
GCATCTAA	0.13
AGAAAGGC	-0.119
CGTATAGA	0.458
TCTAGCAA	0.0363
CGTCCTTC	-0.0408
CACGGAAC	0.0912

Sequence	PBM E-score
GGACACAA	-0.00344
CAGTCGCG	0.086
CATCATAG	-0.12
ATAGCGGG	-0.0534
CCTACCAC	-0.243
ACGCAGTA	0.16
CTCTGCTA	-0.305
CCGTGAGA	-0.336
GGATGTCA	-0.0106
ATCACTGG	-0.0635
CACGTTTC	-0.0133
ATGCTCAA	-0.27
ATCTTGCG	-0.0369
ACTTTCAA	-0.174
GTAACCAA	0.0317
GATAAGAC	-0.115
ACACCGGA	-0.114
GCCTGCGC	-0.272
GACGTAAA	0.154
GCGCGGAA	-0.0299
CAGGTGTA	-4e-05
GCTGCGTA	0.197
GAGACGCA	-0.00019
GTCCAATA	-0.086
GAAGGGCC	-0.0684

Sequence	PBM E-score
CAGTGAAC	-0.00726
CTATAAGC	-0.0428
AAGAAAAT	0.173
CGCAATCA	-0.0988
CAGGTACG	0.423
ATGGCTAC	0.146
CAAGCGTC	-0.0674
AGGCGGGA	-0.209
CATGCGGG	-0.05
GAGACATC	0.0757
GACTACTA	-0.0404
CCCGCATC	-0.00884
GATCCGCA	0.0238
CGAACGAC	0.389
CCTGACAA	-0.117
TACGGCAA	0.315
AGGCTGTC	0.014
CCAGGGTC	-0.14
GAATGGTC	-0.116
ACAATGGT	-0.287
CCATAGTC	-0.299
AAGCGATT	0.155
AACCCCAA	-0.13
ATTCCAGG	-0.277
ACCTGTAC	0.17

Sequence	PBM E-score
GATAAGTA	0.0422
AGACCTCG	0.208
CCCGTCCA	-0.0657
CGAGATCA	0.264
CCACTCCA	-0.082
CATTGCCA	-0.0283
AGCCGACG	0.0118
TCAAGCAA	-0.218
CCGCGTGA	0.037
CTTCGGGA	0.0637
AGTACCTG	-0.106
CCATTCTA	-0.198
ACTTCGTG	0.116
TATCGTCA	-0.0196
CGAAAATC	0.162
AGCTACAT	-0.148
ACGCGGCT	0.0937
GAGCGCCA	-0.0916
CGTTTAGA	0.446
CACGTTGG	-0.226
GTAGCAAC	0.0848
CACCGCAG	-0.207
ACTCCATA	-0.195
CGTCGACC	-0.0446
ATAGCCGC	-0.143

Sequence	PBM E-score
ACGGCGCG	0.318
AACAGGCA	-0.129
GTCACCCA	-0.297
CTTACACA	-0.278
GTCCACAC	0.00156
ACTGAGTA	-0.0231
GATATATC	-0.116
CTGGAATA	-0.127
AAGACCAG	-0.318
AACTACGC	0.102
ATTCTTGC	-0.0441
GCTCGGAC	0.161
CGTCTGCC	-0.06
GCCGGAAC	0.0721
ATAATGCA	0.0774
AATCCCGA	0.136
ATAGTTCA	0.107
ACATTTCA	-0.103
AGTTGCAT	-0.0617
ACACCCGG	-0.00779
ACAGCAAA	-0.038
CGTGGAAA	0.0923
AATATGGG	-0.124
AGAGCATA	-0.108
CGCAGCAC	-0.108

Sequence	PBM E-score
ACATACAT	0.114
CTTGCTCA	-0.17
AATACCTA	-0.0655
TCAAGAAA	0.0221
CGTAATGC	0.162
AGAAGCAT	-0.152
CGCTACAG	-0.099
AAAGCGAT	0.139
ATGCTACC	-0.113
GGAAAAAA	0.126
CAAGACGC	-0.0301
ATTCGATA	-0.0318
TCCGGTAA	0.134
GAGAAAAA	0.00044
CACCAAGG	-0.286
ACCCTAAA	0.0255
TATTAGAA	0.092
GCCGCAAA	0.0548
AGGAAAAA	0.00279

— the supplement of paper PMC3334620
